Laboratory results: the supplement of paper PMC3334620
Over roughly 33,000 sequences, “E-score (-0.5 to 0.5)” has its median near -0.041; the highest 2% begin near 0.37. The list shows a part of the results.

Molecular target: T1, Ecm22 (UniProt Q05958)
T1 sequence: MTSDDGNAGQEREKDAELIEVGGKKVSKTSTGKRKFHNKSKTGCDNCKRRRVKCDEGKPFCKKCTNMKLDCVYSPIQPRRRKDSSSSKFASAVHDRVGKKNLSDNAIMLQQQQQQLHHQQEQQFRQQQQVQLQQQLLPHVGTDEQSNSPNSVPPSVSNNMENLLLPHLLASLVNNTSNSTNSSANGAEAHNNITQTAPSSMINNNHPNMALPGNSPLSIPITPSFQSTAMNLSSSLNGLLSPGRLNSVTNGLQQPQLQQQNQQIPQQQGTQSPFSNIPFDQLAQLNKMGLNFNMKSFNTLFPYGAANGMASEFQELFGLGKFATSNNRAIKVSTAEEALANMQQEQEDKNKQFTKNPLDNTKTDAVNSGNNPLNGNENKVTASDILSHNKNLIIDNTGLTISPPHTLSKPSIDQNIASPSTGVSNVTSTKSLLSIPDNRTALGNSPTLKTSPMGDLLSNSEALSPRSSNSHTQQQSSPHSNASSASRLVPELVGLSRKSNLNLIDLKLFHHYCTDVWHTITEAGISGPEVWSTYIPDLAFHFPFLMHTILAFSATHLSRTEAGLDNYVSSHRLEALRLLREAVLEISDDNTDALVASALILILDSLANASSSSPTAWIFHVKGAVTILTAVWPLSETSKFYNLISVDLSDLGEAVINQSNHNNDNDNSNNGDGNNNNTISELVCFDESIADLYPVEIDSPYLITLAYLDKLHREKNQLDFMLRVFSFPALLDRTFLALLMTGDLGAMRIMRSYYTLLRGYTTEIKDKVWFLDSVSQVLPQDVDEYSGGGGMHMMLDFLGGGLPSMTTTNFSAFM
Assay: PBM E-score (8-mer binding enrichment) (E-score (-0.5 to 0.5)); higher = stronger / more preferred TF binding; most listed sequences are background and not binding sites
Conditions: protein concentration: 200 nM; construct: GST-full length
Summary of the method: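 The E-score, a modified Wilcoxon-Mann-Whitney statistic, was computed by the Universal PBM Analysis Suite for every ungapped eight-base word pooled with its reverse complement. Scans behind it were normalised with masliner after bound GST-tagged yeast transcription factors were detected with fluorescent anti-GST. The proteins, at about 100-200 nM, had been applied to universal all-10-mer Agilent arrays made double-stranded by primer extension.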

Question: Which “PBM E-score” value does the source give for CTGTGAAA here?
Answer: The value was 0.112.

Question: How did the “PBM E-score” value turn out when ACGCACGA was run?
Answer: The value was 0.229.

Question: How did the “PBM E-score” value turn out when CAGGCTAG was run?
Answer: Its value is -0.246.

Question: Which “PBM E-score” value does the source give for CGTGTCAG here?
Answer: The value was 0.0365.

Question: For AAATTCCT, which “PBM E-score” value is on record?
Answer: The value was -0.176.

Question: Which “PBM E-score” value does the source give for ACAGTCAA here?
Answer: Its value is 0.0316.

Question: For AACACAAA, which “PBM E-score” value is on record?
Answer: Its value is 0.146.

Question: Which “PBM E-score” value does the source give for TCAAAGCA here?
Answer: The value was -0.0829.

Question: CATTGTCG was tested. Which “PBM E-score” value did it give?
Answer: The value was 0.0896.

Question: How did the “PBM E-score” value turn out when ACGTTACT was run?
Answer: The value was 0.0882.

Question: For AGAGTAAA, which “PBM E-score” value is on record?
Answer: The value was -0.0459.

Question: How did the “PBM E-score” value turn out when GCGAGCTA was run?
Answer: The value was 0.248.

Question: With ATAGTAAC as the sequence, how does the “PBM E-score” value read?
Answer: The value was -0.0177.

Question: Which “PBM E-score” value does the source give for GGACGCAA here?
Answer: The value was -0.0673.

Question: ATGCGTCC was tested. Which “PBM E-score” value did it give?
Answer: Its value is -0.169.

Question: How did the “PBM E-score” value turn out when CGTGCCCC was run?
Answer: The value was -0.104.

Question: How did the “PBM E-score” value turn out when CGCTACGA was run?
Answer: The value was 0.456.

Question: CTGTGTGC was tested. Which “PBM E-score” value did it give?
Answer: The value was -0.142.

Question: With CACAGGAG as the sequence, how does the “PBM E-score” value read?
Answer: The value was 0.0417.

Question: Which “PBM E-score” value does the source give for CTCGAACC here?
Answer: Its value is 0.115.

Question: For TAACAGTA, which “PBM E-score” value is on record?
Answer: The value was 0.11.

Question: ATCCAAGA was tested. Which “PBM E-score” value did it give?
Answer: The value was -0.0871.

Question: CTCTGATC was tested. Which “PBM E-score” value did it give?
Answer: Its value is -0.128.

Question: With CATGCTGG as the sequence, how does the “PBM E-score” value read?
Answer: Its value is -0.278.

Question: ACTTCGAC was tested. Which “PBM E-score” value did it give?
Answer: Its value is 0.0621.

Question: With CGCCAAAA as the sequence, how does the “PBM E-score” value read?
Answer: The value was 0.0978.

Question: With ACGACAGA as the sequence, how does the “PBM E-score” value read?
Answer: The value was 0.341.

Question: How did the “PBM E-score” value turn out when GACGAGCA was run?
Answer: The value was 0.0907.

Question: With ACTCCGCG as the sequence, how does the “PBM E-score” value read?
Answer: The value was 0.107.

Question: Which “PBM E-score” value does the source give for GTGGAATA here?
Answer: The value was 0.0081.

Question: With TGAGATAA as the sequence, how does the “PBM E-score” value read?
Answer: The value was -0.0236.

Question: Which “PBM E-score” value does the source give for TATTCCAA here?
Answer: Its value is -0.0763.

Question: How did the “PBM E-score” value turn out when GTGGCGTA was run?
Answer: Its value is 0.042.

Question: TCGACCAA was tested. Which “PBM E-score” value did it give?
Answer: The value was -0.159.

Question: How did the “PBM E-score” value turn out when GCGTAGAC was run?
Answer: The value was -0.064.

Question: Which “PBM E-score” value does the source give for CTGTTACC here?
Answer: The value was 0.0707.

Question: Which “PBM E-score” value does the source give for ACCGGCGC here?
Answer: The value was 0.0279.

Question: With ATGTTGTG as the sequence, how does the “PBM E-score” value read?
Answer: Its value is 0.0154.

Question: Which “PBM E-score” value does the source give for AGGAACTG here?
Answer: Its value is -0.231.

Question: How did the “PBM E-score” value turn out when CATTCTTA was run?
Answer: Its value is -0.183.

Question: With ACCGCCAA as the sequence, how does the “PBM E-score” value read?
Answer: Its value is -0.136.

Question: How did the “PBM E-score” value turn out when GGCAGCCA was run?
Answer: The value was -0.374.

Question: CCTTCTTA was tested. Which “PBM E-score” value did it give?
Answer: The value was -0.0722.

Question: For CAGATCCC, which “PBM E-score” value is on record?
Answer: Its value is 0.0114.

Question: For CACAACCG, which “PBM E-score” value is on record?
Answer: Its value is 0.182.

Question: Which “PBM E-score” value does the source give for ATAAGATC here?
Answer: The value was 0.0584.

Question: Which “PBM E-score” value does the source give for ATGTGGAC here?
Answer: Its value is -0.148.

Question: How did the “PBM E-score” value turn out when CTACTTGA was run?
Answer: Its value is -0.208.

Question: With GCTCTAGA as the sequence, how does the “PBM E-score” value read?
Answer: The value was -0.226.

Question: Which “PBM E-score” value does the source give for ATGGACGA here?
Answer: The value was -0.00268.

Question: How did the “PBM E-score” value turn out when ACCAAAAC was run?
Answer: Its value is -0.0198.

Question: ATGTCTCC was tested. Which “PBM E-score” value did it give?
Answer: Its value is -0.0375.

Question: ACCGGGAG was tested. Which “PBM E-score” value did it give?
Answer: Its value is -0.0947.

Question: Which “PBM E-score” value does the source give for TAACACTA here?
Answer: Its value is 0.164.

Question: With GGACCGGA as the sequence, how does the “PBM E-score” value read?
Answer: Its value is 0.166.

Question: For AGGACCGG, which “PBM E-score” value is on record?
Answer: Its value is -0.196.

Question: Which “PBM E-score” value does the source give for GAATATCA here?
Answer: Its value is 0.0564.

Question: With CTGGACGC as the sequence, how does the “PBM E-score” value read?
Answer: Its value is -0.26.

Question: For CGTGAAGA, which “PBM E-score” value is on record?
Answer: The value was -0.0551.

Question: Which “PBM E-score” value does the source give for AGGTCATA here?
Answer: The value was 0.0107.

Question: For CAGTCGAG, which “PBM E-score” value is on record?
Answer: The value was -0.146.

Question: With GGACTAAC as the sequence, how does the “PBM E-score” value read?
Answer: Its value is -0.155.

Question: Which “PBM E-score” value does the source give for ACATAAAT here?
Answer: Its value is -0.0004.

Question: How did the “PBM E-score” value turn out when AACCTCCT was run?
Answer: The value was -0.0581.

Question: Which “PBM E-score” value does the source give for GACCTGGA here?
Answer: The value was -0.102.

Question: How did the “PBM E-score” value turn out when AAAGAATG was run?
Answer: The value was 0.0134.

Question: Which “PBM E-score” value does the source give for AGTGGCCC here?
Answer: The value was -0.194.

Question: For CAATCCGA, which “PBM E-score” value is on record?
Answer: Its value is 0.16.

Question: How did the “PBM E-score” value turn out when GCCCCACC was run?
Answer: The value was 0.0628.

Question: For AGCCTAAC, which “PBM E-score” value is on record?
Answer: Its value is -0.0712.

Question: Which “PBM E-score” value does the source give for AGAAGATC here?
Answer: Its value is 0.1.

Question: Which “PBM E-score” value does the source give for CCCCGGGA here?
Answer: Its value is -0.203.

Question: With ACTACCCA as the sequence, how does the “PBM E-score” value read?
Answer: Its value is -0.118.

Question: AAACCACC was tested. Which “PBM E-score” value did it give?
Answer: Its value is -0.123.

Question: Which “PBM E-score” value does the source give for CCTGCGGC here?
Answer: The value was -0.277.

Question: For CCGAGCTC, which “PBM E-score” value is on record?
Answer: Its value is 0.219.

Question: With AGCAACAT as the sequence, how does the “PBM E-score” value read?
Answer: The value was -0.112.

Question: How did the “PBM E-score” value turn out when CCAGTGCA was run?
Answer: Its value is -0.00557.

Question: For TTACAAAA, which “PBM E-score” value is on record?
Answer: The value was 0.074.

Question: ATAATCAC was tested. Which “PBM E-score” value did it give?
Answer: The value was 0.0687.

Question: Which “PBM E-score” value does the source give for GGCCCAGA here?
Answer: Its value is -0.24.

Question: With AAGCCGAT as the sequence, how does the “PBM E-score” value read?
Answer: The value was 0.0104.

Question: With CCGTGCTC as the sequence, how does the “PBM E-score” value read?
Answer: Its value is -0.064.

Question: With CCTCGTCC as the sequence, how does the “PBM E-score” value read?
Answer: Its value is -0.238.

Question: CCTCTGAA was tested. Which “PBM E-score” value did it give?
Answer: Its value is -0.0798.

Question: How did the “PBM E-score” value turn out when ATATGTTC was run?
Answer: Its value is 0.203.

Question: Which “PBM E-score” value does the source give for GGTATGAC here?
Answer: Its value is -0.125.

Question: AACGCACC was tested. Which “PBM E-score” value did it give?
Answer: Its value is 0.113.

Question: For ACTGTATC, which “PBM E-score” value is on record?
Answer: The value was 0.0611.

Question: Which “PBM E-score” value does the source give for ATCTTCGC here?
Answer: The value was 0.175.

Question: Which “PBM E-score” value does the source give for GGAAATAA here?
Answer: Its value is 0.11.

Question: AAAAGGGG was tested. Which “PBM E-score” value did it give?
Answer: The value was -0.159.

Question: With ATACAGTC as the sequence, how does the “PBM E-score” value read?
Answer: The value was -0.122.

Question: ATGGAATG was tested. Which “PBM E-score” value did it give?
Answer: The value was -0.129.
